Experimental data: article PMC4336329 (PLoS ONE, 2015)
Hit rate of the full screen: of about 310,000 compounds, about 2,200 (0.71%) showed an effect of 50% or more. Effects have a minus sign here. The list shows a part of the results.

Each compound was assayed against human ether-à-go-go-related gene (hERG) potassium channel (human, UniProt Q12809) (assay: primary screen, population patch clamp on CHO cells stably expressing hERG).
Sequence of human ether-à-go-go-related gene (hERG) potassium channel (Q12809 whole entry, looked up): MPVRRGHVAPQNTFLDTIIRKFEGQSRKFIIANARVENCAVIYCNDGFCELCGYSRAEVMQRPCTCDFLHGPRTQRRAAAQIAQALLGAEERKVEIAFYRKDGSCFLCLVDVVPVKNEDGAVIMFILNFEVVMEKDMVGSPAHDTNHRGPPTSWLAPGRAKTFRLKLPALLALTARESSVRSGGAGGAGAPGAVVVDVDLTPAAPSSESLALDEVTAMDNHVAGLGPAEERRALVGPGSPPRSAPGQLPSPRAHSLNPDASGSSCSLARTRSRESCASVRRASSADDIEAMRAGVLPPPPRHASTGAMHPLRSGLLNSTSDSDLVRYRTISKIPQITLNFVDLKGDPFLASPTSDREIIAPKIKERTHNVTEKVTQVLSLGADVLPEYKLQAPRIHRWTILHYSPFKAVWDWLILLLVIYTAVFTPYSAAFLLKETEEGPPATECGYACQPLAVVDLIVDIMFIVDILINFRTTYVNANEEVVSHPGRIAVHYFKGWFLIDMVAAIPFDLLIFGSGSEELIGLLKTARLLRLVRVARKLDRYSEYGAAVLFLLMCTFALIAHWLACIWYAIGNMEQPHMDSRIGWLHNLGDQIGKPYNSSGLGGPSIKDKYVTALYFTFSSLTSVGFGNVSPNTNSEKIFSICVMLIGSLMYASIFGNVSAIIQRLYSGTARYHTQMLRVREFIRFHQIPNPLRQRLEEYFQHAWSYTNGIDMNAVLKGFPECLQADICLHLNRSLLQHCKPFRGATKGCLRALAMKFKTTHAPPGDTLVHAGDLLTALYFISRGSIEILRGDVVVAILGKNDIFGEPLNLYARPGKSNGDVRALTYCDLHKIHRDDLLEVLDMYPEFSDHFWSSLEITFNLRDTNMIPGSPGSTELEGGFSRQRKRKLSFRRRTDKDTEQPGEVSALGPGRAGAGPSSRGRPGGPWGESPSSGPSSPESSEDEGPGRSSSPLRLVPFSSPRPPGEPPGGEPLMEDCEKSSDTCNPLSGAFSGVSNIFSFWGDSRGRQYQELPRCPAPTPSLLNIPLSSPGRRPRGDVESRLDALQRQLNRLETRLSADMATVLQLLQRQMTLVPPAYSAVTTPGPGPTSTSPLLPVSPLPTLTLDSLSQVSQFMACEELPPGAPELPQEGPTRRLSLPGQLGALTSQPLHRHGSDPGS

| Structure (SMILES) | hERG current change (%, negative = inhibition) at 1uM [%] |
| --- | --- |
| Cc1nn(C(=O)Cn2ccc([N+](=O)[O-])n2)c(C)c1Cl | 12 |
| O=C(Nc1cccc(Cl)c1)Nc1ccc2nccnc2c1 | 14.6 |
| COc1cc(OC)cc(C(=O)NCc2n[nH]c(=S)n2-c2ccccc2OC)c1 | 17.2 |
| O=C(NCc1ccco1)C1CCCN1S(=O)(=O)c1ccc2ccccc2c1 (stereo not shown) | 10.9 |
| CC(C)CC1NC(=O)N(CC(=O)N2CCN(S(=O)(=O)c3ccc(Cl)cc3)CC2)C1=O (stereo not shown) | -13 |
| CCOC(=O)CNC(=O)c1sc(NC(=O)/C=C/c2ccccc2)nc1C | 11.1 |
| CCOC(=O)c1cnc2c(C(F)(F)F)cccc2c1NCCCN1CCOCC1 | 3.64 |
| COc1cccc(OC)c1C(=O)OCC(=O)N1CC(C)CC(C)C1 (stereo not shown) | 16.3 |
| Cc1cccc(NC(=S)NC(NC(=O)c2ccco2)C(Cl)(Cl)Cl)c1 (stereo not shown) | 13.1 |
| CCCNC(=S)NNC(=O)c1cc(-c2cccnc2)nc2ccccc12 | 13 |
| COCC(=O)NNC(=O)c1ccccc1OC | 15 |
| CSc1ncccc1C(=O)Nc1cccc(S(=O)(=O)N2CCCCC2)c1 | -20.1 |
| O=S(=O)(c1ccsc1)N1CC=C(c2ccccc2)CC1 | 15.2 |
| N=c1sc2ccccc2n1-c1ccccc1 | -0.156 |
| O=C(NCCC1=CCCCC1)C1CCN(S(=O)(=O)c2ccc(Br)s2)CC1 | 15 |
| Cc1cccc(NC(=O)CNC(=O)CN2CCN(C)CC2)c1C | 8.17 |
| Cn1cc(C(=O)N2CCCCC2)c2ccccc21 | 13.7 |
| COc1ccc(NC(=O)CN(C)C(=O)C2CSC3(C)CCC(=O)N23)cc1 (stereo not shown) | 0.725 |
| CS(=O)(=O)c1ccc(Cl)c(NC(=O)CSc2nc3ccccc3c(=O)n2Cc2ccco2)c1 | 7.36 |
| CCn1c(O)c(N=Nc2ccc(Cl)c(C(=O)O)c2)c2ccccc21 | 13.2 |

| Structure (SMILES) | hERG current change (%, negative = inhibition) at 1uM [%] |
| --- | --- |
| N#CC(Sc1ccccn1)c1ccc(Cl)cc1Cl (stereo not shown) | 13.8 |
| Cc1ccc(NC(=S)Nc2ccc(S(=O)(=O)N3CCOCC3)cc2)cc1S(=O)(=O)N1CCOCC1 | -0.299 |
| O=C(CN1C(=O)C2C3C=CC(C4CC34)C2C1=O)Nc1cnc2ccccc2c1 (stereo not shown) | 7.53 |
| COc1cccc(/C=N/NC(=S)NC2CC3CC2C2C=CCC32)c1O (stereo not shown) | 13.3 |
| Cc1cccc(C)c1NC(=O)CN(C)CC(=O)Nc1ccccc1Br | 10.2 |
| O=C(N/N=C\c1ccccn1)c1ccccc1O | 13 |
| COc1ccc2nc(SCc3cnc(C)nc3N)[nH]c2c1 | 4.25 |
| c1ccc2[nH]c(CCCc3nc4ccccc4[nH]3)nc2c1 | 11.1 |
| COc1ccc(C2C(C(=O)N3CCOCC3)=C(C)NC3=C2C(=O)CC(C)(C)C3)c(OC)c1 (stereo not shown) | -8.13 |
| CC(=O)Nc1ccc(NC(=O)CSc2nnc(-c3cccs3)n2C)cc1 | 11 |
| COc1ccc(C(=O)NC(C)c2cnn(-c3ccccn3)c2C)o1 (stereo not shown) | -1.43 |
| Cc1c(NC(=O)c2cc(-c3ccc(Cl)c(Cl)c3)on2)c(=O)n(-c2ccccc2)n1C | -2.05 |
| O=C(c1ccco1)N1CCN(Cc2nnnn2C2CCCCC2)CC1 | 9.48 |
| Cc1ccc(-n2cc(CN3CCC(CO)(Cc4ccccc4)CC3)cn2)cc1 | -22 |
| COc1ccc2c(c1)-c1nc(/N=C/c3ccc(O)cc3)sc1CC2 | 5.03 |
| C=CCn1c(-c2ccoc2C)n[nH]c1=S | 8.26 |
| COC(=O)c1oc(-c2ccccc2)nc1C | 34.4 |
| CC(=O)N1CCN(C(=O)c2ccc(S(=O)(=O)Nc3ccccc3C)cc2)CC1 | -1.33 |
| O=c1cc(CCl)nc(Cc2c(Cl)cccc2Cl)[nH]1 | 14.8 |
| O=C(N/N=C/C(Cl)=C/c1ccccc1)c1ccc2c(c1)OCO2 | 9.28 |

| Structure (SMILES) | hERG current change (%, negative = inhibition) at 1uM [%] |
| --- | --- |
| Cc1ccc(NC(=O)c2sc3ccccc3c2Cl)nc1 | 8.41 |
| C/C(=N/NC(=O)C1COc2ccccc2O1)c1ccco1 (stereo not shown) | 8.7 |
| Cc1nc2nc(SCc3ccccc3)[nH]n2c(=O)c1C | 6.36 |
| COc1ccccc1C(=O)Nc1ccc(-c2nnn(CC(=O)NCc3ccco3)n2)cc1 | 13 |
| Fc1ccc(/C=N/n2c(-c3cccs3)n[nH]c2=S)cc1 | 16 |
| Cc1cc(C)c(S(=O)(=O)N2CCOC2CNC(=O)C(=O)NCCc2c[nH]c3ccccc23)c(C)c1 (stereo not shown) | 11.2 |
| O=C(N/N=C/c1ccc([N+](=O)[O-])cc1)c1cc2ccccc2o1 | 14.8 |
| O=c1nc(NCc2ccco2)sc2ncccc12 | 8.47 |
| Cc1cc(Cl)ccc1NC(=O)CN1CCN(C(=O)c2ccco2)CC1 | -57.1 |
| CCN(CC)S(=O)(=O)c1ccc(C(=O)NCC(=O)NC2CC2)cc1 | 3.22 |
| CC1CC(C)CN(CCCNC(=O)COc2cc(=O)n(C)c3ccccc23)C1 (stereo not shown) | 10.1 |
| Oc1ccc(/C=N/Nc2cc(N3CCCC3)nc(N3CCCC3)n2)cc1O | 11.8 |
| COc1ccc(-n2nnc3c(SCC(=O)Nc4ccccc4F)ncnc32)cc1 | 13.2 |
| COc1ccc(N2CCN(CC(=O)Nc3cccc(S(=O)(=O)N4CCOCC4)c3)CC2)cc1.Cl | 6.26 |
| Cc1[nH]c2ccccc2c1C(=O)CSc1nccc(=O)[nH]1 | 18.2 |
| CCOc1ccc(OCCCCOc2ccccc2C(C)=O)cc1 | 0.463 |
| COc1cccc(-c2cc(C(=O)NC3CCCC3)c3ccccc3n2)c1 | 5.18 |
| COc1ccc(OC)c(NS(=O)(=O)c2cccc3cccnc23)c1 | 18.4 |
